In PubChem BioAssay AID1814 (Broad Institute, 2009):
Out of some 300,000 compounds screened, about 22,000 (7.3%) were called active. Inconclusive means that the source gave no clear call. Such entries were picked first, then a sample of the others. No stated cut-off is given here; in the data, active means activity score below about -60%; inconclusive means mostly about -28% to -61%; inactive means positive scores.

assay: Activators via SNCA 5'UTR binding, MLPCN (AID 1814); conditions: alpha-synuclein 5'UTR reporter, activators screen; active compounds read low; tested at 7.5 µM

Row | Compound | activity score
1 | COc1ccc(NC(=S)Nc2cc(C)cc(C)n2)cc1OC | inconclusive: -54.8%
2 | Cc1cccc(Nc2nc(N)c([N+](=O)[O-])c(N3CCCC(C)C3)n2)c1 (stereo not given) | inactive: 59.2%
3 | Fc1cccc(-c2csc(-c3ccno3)n2)c1 | inconclusive: -61.1%
4 | COc1ccc(NC(=O)c2nc(S(=O)(=O)Cc3cccc(C)c3)ncc2Cl)c(OC)c1 | inactive: 82.4%
5 | Cc1cc(C=C(C#N)C#N)c(C)n1-c1ccccc1 | inconclusive: -59.9%
6 | C=CCSc1n[nH]c(-c2ccc(OCCCC)cc2)n1 | active: -89.2%
7 | COc1ccc(O)c(C2=Nc3ccccc3N=C(c3ccccc3)C2)c1 | inconclusive: -49.4%
8 | CCc1ccc(C(=O)NCC2COc3ccccc3O2)o1 (stereo not given) | inconclusive: -56.7%
9 | CC(C)(C)C(=O)/C=C/Nc1ccccc1O | inconclusive: -56.2%
10 | Cc1ccc(C)c(C(=O)COc2ccccc2[N+](=O)[O-])c1 | inconclusive: -56.8%
11 | COCCCNc1nc(N)c([N+](=O)[O-])c(NCc2ccccc2)n1 | inactive: 56.5%
12 | Cc1ccc(CNC(=O)C2CCC(=O)N(CCc3ccccc3)C2)s1 (stereo not given) | inconclusive: -40%
13 | Cc1ccc2nc3sc(C(=O)N4CCCc5ccccc54)c(N)c3cc2c1 | active: -158%
14 | O=C(Nc1sc2c(c1C(=O)O)CCCC2)C(=O)N1CCOCC1 | inconclusive: -46%
15 | COc1cc(C(=O)Nc2ccc3ccccc3c2)cc(OC)c1OC | inactive: 88.5%
16 | COc1ccc2cc3c(N)nn(C(=O)c4ccccc4Cl)c3nc2c1 | inactive: 65.3%
17 | O=C(Nc1cccc([N+](=O)[O-])c1)c1ccc2nsnc2c1 | inconclusive: -53.6%
18 | COC(=O)C(C)n1cnc2c(cnn2-c2ccc(Cl)cc2)c1=O (stereo not given) | inconclusive: -54.6%
19 | CCOC(=O)N1CCN(CC(=O)c2ccc(O)c(C)c2O)CC1 | inconclusive: -44%
20 | Cc1ccc(S(=O)(=O)Nc2cc(-c3nn(C)c(=O)c4ccccc34)ccc2N2CCOCC2)cc1 | inactive: 78.4%

Row | Compound | activity score
21 | O=C(c1ccccc1)c1cc2ccc(O)cc2oc1=O | inconclusive: -60.3%
22 | O=C1NC2=C(CCc3ccccc32)C(c2ccccc2)N1 (stereo not given) | inconclusive: -41.6%
23 | COC(=O)c1cnc(Oc2ccc(NC(=O)NC(=O)c3c(OC)cccc3OC)cc2)cc1C(F)(F)F | inactive: 74.5%
24 | c1ccc(COc2ccc(CNCc3cccnc3)cc2)cc1 | inconclusive: -48.6%
25 | Oc1ccc(N=Nc2n[nH]c(-c3ccc(Br)cc3)n2)cc1 | inconclusive: -55.2%
26 | O=C(NCc1ccccn1)c1cc(-c2ccc(Br)cc2)nc2ccccc12 | inconclusive: -60.4%
27 | CC(Sc1nc2ccccc2s1)C(=O)N1CCOCC1 (stereo not given) | inconclusive: -50.9%
28 | O=C(Nc1ccc(-c2nc3cccnc3s2)cc1)C1CCCO1 (stereo not given) | inactive: 87.3%
29 | COc1cc(OC)c(NC(=O)CCc2nc(-c3ccc(C)cc3)no2)cc1Cl | inconclusive: -43.7%
30 | CN(C)CCCN(C(=O)c1cc(-c2cccs2)nc2ccccc12)c1nc2ccc(F)cc2s1 | inactive: 98.9%
31 | COC(=O)c1ccc(Nc2cc(C)nc3ccccc23)cc1 | inactive: 64.7%
32 | COc1cc2c(c(OC)c1OC)-c1ccc(OC)c(=O)cc1C(NC(C)=O)CC2 (stereo not given) | inactive: 74.8%
33 | CCOc1ccccc1C=Nc1ccccc1C(=O)Nc1ccccc1 | inconclusive: -50.1%
34 | CN(C)c1c(N)c(=O)oc2ccccc12 | inconclusive: -60.2%
35 | CS(=O)(=O)c1ccc2nc(NC(=O)c3cc4ccccc4o3)sc2c1 | active: -167%
36 | N/C(=C\C(=O)c1cc(Cl)ccc1O)C(Cl)(Cl)Cl | active: -80.1%
37 | CCc1ccc(NC(=O)c2ccc3ncsc3c2)cc1 | active: -155%
38 | COc1ccc(C2Nc3ccccc3C(=O)N2NS(=O)(=O)c2ccc(C)cc2)c(OC)c1 (stereo not given) | inconclusive: -25.5%
39 | O=C(/C=C/c1cccnc1)c1ccc(F)c(F)c1 | inconclusive: -51.7%
40 | CCCCCCCCSc1nnc(-c2ccc(OC)cc2)o1 | inactive: 111%

Row | Compound | activity score
41 | Cc1ccc(-c2csc(NC(=O)COc3ccc(N(C)S(=O)(=O)c4ccc(C)cc4)cc3)n2)cc1 | inconclusive: -46.6%
42 | COc1ccc(C(=O)NC(=S)Nc2cccnc2)cc1Cl | inconclusive: -50.9%
43 | CCCCc1ccc(-c2csc(/C(C#N)=C\c3ccco3)n2)cc1 | active: -106%
44 | Cc1cc(C)nc(SCC(=O)N/N=C/c2ccc3c(c2)OCO3)n1 | inconclusive: -51.9%
45 | CC(=O)N(C(C)=O)n1c(C)nc2sc3c(c2c1=O)CCCC3 | inactive: 51.2%
46 | O=C(Cn1c(/C=C/c2ccccc2)nc2ccccc21)Nc1ccc(F)cc1 | active: -71.5%
47 | COc1ccc(CNC(=O)c2ccc(C(C)C)cc2)cc1 | active: -181%
48 | CCNS(=O)(=O)c1ccc(NC(=O)Nc2ccc3c(c2)OCO3)cc1 | inconclusive: -39.9%
49 | COc1ccc2c(=O)c3c(=O)n(-c4ccccc4)c(-c4ccco4)nc3oc2c1 | active: -95.6%
50 | N=C1C(c2nc3ccccc3s2)=C(O)CN1c1ccccc1 | active: -120%
51 | CCOc1ccc2nc3cc(NCc4ccc(OC)cc4)ccc3c(N)c2c1 | inactive: 109%
52 | O=C(C1CCC1)N1CCN(c2ccc(Cl)cc2)CC1 | inconclusive: -60.1%
53 | O=C(NCC1CCCO1)c1ccc([N+](=O)[O-])s1 (stereo not given) | inconclusive: -55.4%
54 | COc1ccc(Cl)cc1C(=O)Nc1nc2ccccc2[nH]1 | inactive: 89.1%
55 | Cc1ccc(-n2nnc(-c3nccs3)n2)cc1 | inactive: 95.4%
56 | COc1ccc(-c2nnc(NC(=O)c3ccc(S(=O)(=O)N4CCCc5ccccc54)cc3)o2)cc1 | inactive: 69%
57 | Cc1ccc(NC(=S)C2=C(O)c3ccccc3N(C)S2(=O)=O)cc1 | active: -100%
58 | Cn1c(=O)c2c(ncn2CC(=O)Nc2nc3ccc(F)cc3s2)n(C)c1=O | inconclusive: -47.2%
59 | N#CCC(=O)N/N=C/c1cn(Cc2ccc(Cl)c(Cl)c2)c2ccccc12 | inactive: 61.2%
60 | CCc1ccc2nc(N(CCN(C)C)C(=O)c3ccc4ncsc4c3)sc2c1 | active: -114%
